Here are results for 54 compounds from ChEMBL document CHEMBL4888484, “Replenishing the malaria drug discovery pipeline: Screening and hit evaluation of the MMV Hit Generation Library 1 (HGL1) against asexual blood stage Plasmodium falciparum ,using a nano luciferase reporter read-out” (2022).

Structures are written as SMILES. The campaign covered roughly 150,000 compounds. About 540 (0.36%) showed an effect of 50% or more. The list shows a part of the results.

As a reminder, the % Inhibition is the drop in the measured response relative to a control, in per cent.

This assay has as its system Plasmodium falciparum. Briefly: Primary screen in NF54 nanoGlo assay, in single point, at 2uM, 72h; a lower Z score goes with more inhibition. Format: functional, Erythrocyte. The note with it: timepoint 72 hour.
Take `O=c1c2ccccc2nc(Cc2ccccc2)n1Nc1ccccc1`: the “% Inhibition” value is on record as -13% and the Z score stood at 1.76.
For the compound `Cc1cccn2cc(Cn3cc(CN4C[C@@H](C)O[C@@H](C)C4)nn3)nc12`, the “% Inhibition” value was -3% and the Z score turned out to be 0.46.
In the same order, the values of `COc1cc(N(C)CC2(CO)CCCC2)nc(N)n1` are -9% and 1.21.
In the same order, the values of `Cc1ccccc1-n1c(=O)c2sccc2n(CC(=O)Nc2ccc(N(C)C)cc2)c1=O` are 2% and -0.2.
In the same order, the values of `Cc1nc(CN2C(=O)N(CC(N)=O)C(C)(C)C2=O)sc1C` are -44% and 5.18.
For `O=C(Cn1nnc2ccccc21)Nc1ccn(Cc2ccc(F)cc2Cl)n1`, the “% Inhibition” value turned out to be 7% and the Z score is reported as -0.82.
Regarding `O=C(NCc1ccccn1)c1ccc(Cn2c(=O)[nH]c3ccsc3c2=O)cc1`, the “% Inhibition” value amounted to 10% and the Z score is -1.61.
For the compound `CC[C@@H](c1ccccn1)N(C)C(=O)c1ccc(-c2sc(C)nc2C)cc1`, the “% Inhibition” value is 9% and the Z score was -1.25.
In the same order, the values of `Cc1ccc(CN2CCN(CC3CCCCC3)[C@@H](CCO)C2)s1` are -18% and 1.62.
In the same order, the values of `CCN1CCC[C@@H]1CN(C)Cc1ccoc1` are -22% and 2.7.
For `CCCN1CCCC[C@H]1C(=O)NCCCn1ccnc1`, the “% Inhibition” value is recorded as -6% and the Z score is 1.01.
In the same order, the values of `CCOCCN1C(=O)NC2c3ccccc3OC13CCCCC23` (stereo not drawn) are 1% and -0.12.
In the same order, the values of `NC(=O)c1ccc(NC(=O)N2CC[C@H](n3cccn3)C2)cn1` are 0% and -0.05.
In the same order, the values of `O=C(COc1ccc(Cl)cc1)N1CCO[C@@H](CN2CCN(c3ccc(F)cc3)CC2)C1` are -6% and 0.77.
For `CCc1ccc(C(=O)N(C)Cc2cc(C)on2)s1`, the “% Inhibition” value is on record as -8% and the Z score turned out to be 1.25.
In the same order, the values of `COc1ncc(-c2c(-c3ccccc3)ncn2[C@H]2COC[C@@H]2OC)cn1` are 5% and -0.59.
In the same order, the values of `Cc1csc(CN2CCOC[C@H]2c2noc(-c3cnn(C)c3)n2)n1` are -18% and 2.56.
In the same order, the values of `CCc1nc(C)c(NC(=O)N[C@@H](C)c2cccc(O)c2)s1` are -9% and 1.07.
Turning to `Cc1cc(C(=O)N2CC(c3nc(-c4ccco4)no3)C2)no1`, the “% Inhibition” value is -20% and the Z score was determined as 2.31.
In the same order, the values of `Cc1nnc2ccc(N3CC(Cn4nc5c(cc4=O)CCC5)C3)nn12` are -8% and 1.14.
In the same order, the values of `CCCn1c(C)nnc1CN[C@H](C)c1ccc(Cl)cc1Cl` are -4% and 0.58.
In the same order, the values of `COc1ncc(CN2CCOC[C@H]2c2ccc(F)cc2)c(C)n1` are -14% and 1.84.
Take `CN(Cc1cc(=O)n2ncnc2[nH]1)CC1(N2CCOCC2)CCCCC1`: the “% Inhibition” value is 13% and the Z score is listed as -1.75.
For `Cc1ccc(-c2onc(C)c2C(=O)Nc2ccc3ccccc3c2)cc1`, the “% Inhibition” value was -6% and the Z score was determined as 0.73.
In the same order, the values of `O=C1C2Cc3c([nH]c4ccccc34)C(CCc3ccccc3)N2C(=O)CN1Cc1ccc(Cl)cc1` (stereo not drawn) are -12% and 1.04.
For `CCC[C@H](C)NC(=O)c1c(CC)noc1C`, the “% Inhibition” value is recorded as -9% and the Z score was 0.82.
In the same order, the values of `C[C@@H](CNC(=O)N1CCN(S(=O)(=O)c2ccccc2)CC1)c1nc2ccccc2n1C(F)F` are 3% and -0.35.
As for `C[C@H](NC(=O)c1coc(CN(CCN2CCOCC2)Cc2cccc(Cl)c2)n1)c1ccccc1`, the “% Inhibition” value turned out to be 2% and the Z score was -0.31.
With `O=C(Nc1ccccc1C(F)(F)F)[C@@H]1COCC(=O)N1Cc1ccccc1`, the “% Inhibition” value is -8% and the Z score was 1.12.
In the same order, the values of `COC(=O)CN1CCN(Cc2c[nH]nc2-c2ccc(F)cc2)[C@@H](C)C1=O` are 0% and 0.02.
In the same order, the values of `CCN(CC)C(=O)c1cnc2snc(C)c2c1N1CCC(C(=O)Nc2ccc(C(C)C)cc2)CC1` are -7% and 1.06.
In the same order, the values of `COC1(C(=O)N[C@H](C)c2ccc(F)cc2Cl)CCC1` are 9% and -1.61.
`O=C1COC(=O)N1C1CN(C(=O)C2(c3ccccc3)CCOCC2)C1`: the “% Inhibition” value is -3% and the Z score was 0.57.
In the same order, the values of `Cc1csc([C@@H](C)CNc2nc(C)cnc2C)n1` are -3% and 0.57.
In the same order, the values of `c1[nH]nc2c1CCC[C@@H]2OCCC1OCCO1` are -3% and 0.45.
In the same order, the values of `Cc1cccc2c1CC(C(=O)N[C@H]1[C@@H]3CN(C(=O)CCn4cccn4)C[C@@H]31)O2` (stereo partly drawn) are -5% and 0.81.
As for `NC(=O)c1cc(N2CCC[C@H](F)C2)ccn1`, the “% Inhibition” value is recorded as -2% and the Z score is 0.4.
In the same order, the values of `CCCc1cc(C(=O)N2CC(c3ccccn3)C2)cs1` are -19% and 3.64.
In the same order, the values of `COC(=O)[C@]1(F)CCN(C(=O)c2[nH]nc3c2CCCC3)C1` are 1% and -0.13.
In the same order, the values of `CCc1cc(C)c(C(=O)N2CCC[C@H]2C(C)(C)O)o1` are -7% and 0.71.
Take `COc1cccc(CN2CCNC(=O)[C@@H]2CC(=O)N2CCCCCCC2)c1OC`: the “% Inhibition” value is given as -18% and the Z score came to 1.95.
In the same order, the values of `Cc1ccc(F)cc1-c1nnc(NS(=O)(=O)c2ccsc2)o1` are -8% and 1.05.
Turning to `COc1ccc(OCC(=O)Nc2cnc(-c3cccc(Cl)c3)nc2)cc1`, the “% Inhibition” value is given as -34% and the Z score is given as 2.96.
In the same order, the values of `Cc1sc2ccccc2c1S(=O)(=O)NCc1ccccn1` are -7% and 0.96.
In the same order, the values of `Oc1cnc(-c2nc(C3CCOCC3)nn2C2Cc3ccccc3C2)cn1` are -11% and 2.24.
Regarding `O=C(NCCc1nnc2ccc(N3CCCCCC3)nn12)c1ccccc1`, the “% Inhibition” value is 6% and the Z score is -0.79.
In the same order, the values of `O=C(NC1CCN(c2cc3c(nn2)CCCC3)CC1)c1cccnc1` are -16% and 2.73.
In the same order, the values of `CC(=O)Nc1nc(N2CCC(C(=O)NCc3cc(F)cc(F)c3)CC2)sc1C(=O)N1CCCC1` are -14% and 1.33.
In the same order, the values of `CCn1nc(C)c(C(=O)N[C@H]2C[C@@H](c3nnc(CN(C)C)n3C)C2)c1C` are -7% and 1.29.
As to `COc1cc(NC(C)=O)c(Cl)cc1C(=O)Nc1nnc(CCCOc2ccccc2)s1`, the “% Inhibition” value is listed as -2% and the Z score is given as 0.32.
In the same order, the values of `CCN(C(=O)C1CCN(C(C)=O)CC1)C1CCCCC1` are 3% and -0.47.
In the case of `CCn1ncc2[nH]c(-c3ccc(OC)nc3)nc21`, the “% Inhibition” value was -8% and the Z score was 1.07.
In the same order, the values of `CN(C)C(=O)N1CCN(c2ncnc3c2Cc2ccccc2OC3)CC1` are -1% and 0.23.
In the same order, the values of `Cc1ccn(CC(=O)N2CC[C@@]3(CCCN(Cc4cccc(F)c4F)C3)C2)n1` are -16% and 1.45.
